From publication PMC4336329 (PLoS ONE, 2015) come the findings set out here.

The structures appear in SMILES notation. Out of some 310,000 compounds screened, about 14,000 (4.5%) showed an effect of 50% or more. Effects have a minus sign here. Some of the results follow.
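Further: peak tail current of the secondary pulse compared with the same well before compound.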

Chain of human ether-à-go-go-related gene (hERG) potassium channel (Q12809 whole entry, looked up): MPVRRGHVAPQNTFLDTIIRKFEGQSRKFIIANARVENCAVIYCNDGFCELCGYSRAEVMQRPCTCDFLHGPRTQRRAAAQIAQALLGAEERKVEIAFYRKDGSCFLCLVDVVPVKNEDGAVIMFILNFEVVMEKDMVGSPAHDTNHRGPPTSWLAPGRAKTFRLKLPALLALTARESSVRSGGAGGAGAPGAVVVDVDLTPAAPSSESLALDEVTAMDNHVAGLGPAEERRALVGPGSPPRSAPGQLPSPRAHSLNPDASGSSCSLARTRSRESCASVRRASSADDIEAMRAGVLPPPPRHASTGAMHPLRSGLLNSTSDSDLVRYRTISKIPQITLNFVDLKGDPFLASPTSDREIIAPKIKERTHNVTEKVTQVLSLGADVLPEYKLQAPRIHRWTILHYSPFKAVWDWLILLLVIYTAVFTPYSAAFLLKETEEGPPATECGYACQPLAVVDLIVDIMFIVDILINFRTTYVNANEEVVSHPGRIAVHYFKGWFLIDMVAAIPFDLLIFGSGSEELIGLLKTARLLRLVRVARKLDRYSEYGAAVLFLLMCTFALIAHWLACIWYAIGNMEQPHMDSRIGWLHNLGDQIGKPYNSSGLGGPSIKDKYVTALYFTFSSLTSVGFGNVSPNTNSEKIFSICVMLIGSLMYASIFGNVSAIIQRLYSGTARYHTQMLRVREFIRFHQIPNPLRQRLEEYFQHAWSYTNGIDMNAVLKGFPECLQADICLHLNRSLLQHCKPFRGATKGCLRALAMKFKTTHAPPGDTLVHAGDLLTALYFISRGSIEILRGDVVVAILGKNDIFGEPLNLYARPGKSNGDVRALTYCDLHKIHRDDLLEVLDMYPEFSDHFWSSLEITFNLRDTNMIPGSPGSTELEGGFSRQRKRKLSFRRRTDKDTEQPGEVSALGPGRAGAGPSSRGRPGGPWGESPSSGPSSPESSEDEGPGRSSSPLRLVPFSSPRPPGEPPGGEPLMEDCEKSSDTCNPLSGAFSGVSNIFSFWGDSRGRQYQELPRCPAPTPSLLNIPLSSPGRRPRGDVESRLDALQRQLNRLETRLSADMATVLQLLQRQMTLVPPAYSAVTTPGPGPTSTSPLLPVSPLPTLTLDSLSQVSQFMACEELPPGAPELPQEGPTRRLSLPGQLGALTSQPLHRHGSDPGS

The assay has as its target human ether-à-go-go-related gene (hERG) potassium channel (human, UniProt Q12809). The assay is described as follows: primary screen, population patch clamp on CHO cells stably expressing hERG.
For `CCc1cccc(CC)c1NC(=O)C(NS(=O)(=O)c1cccs1)c1ccccc1` (stereo not shown), the “hERG current change (%, negative = inhibition) at 10uM” value stood at 7.4%. Next, `O=C(CCN1C(=O)C2C3C=CC(C3)C2C1=O)NC1CCCCC1` (stereo not shown): 11.1%. As to `Cc1ccc2nc3n(c(=O)c2c1)-c1cc(Cl)ccc1C(=O)NC3Cc1ccccc1` (stereo not shown), the “hERG current change (%, negative = inhibition) at 10uM” value amounted to 22%. The same measure for `Cc1nn(C)cc1CNC(=O)C1CCC(=O)N(CC2CCCCC2)C1` (stereo not shown): -8.4%. `O=C1Nc2ccc(Br)cc2/C1=C/c1ccc(C(=O)O)cc1`: the “hERG current change (%, negative = inhibition) at 10uM” value came out at 17.3%.

As for `O=C(NC1CCC(O)CC1)c1cc(-c2ccco2)nc2ccccc12` (stereo not shown), the “hERG current change (%, negative = inhibition) at 10uM” value came to 10.5%. The same measure for `CCCCCCN1C=CC(=C2C(=O)c3ccccc3C2=O)C=C1`: 10.5%; for `Cc1ccccc1NC(=S)N(CCN(C)C)C(C)c1cccnc1` (stereo not shown): -50.1%; for `O=C(O)CCCCCCCCCC[n+]1ccccc1.[Br-]`: 16%. The same measure for `O=C(CN1C(=O)/C(=C/c2ccc(C(F)(F)F)cc2)Sc2ccccc21)NCCCN1CCOCC1`: -65.6%; for `COC(=O)CC(NC(=O)c1ccc(C)cc1)c1ccc2c(c1)OCO2` (stereo not shown): 0.217%.

Take `Cc1ccc([N+](=O)[O-])cc1S(=O)(=O)N1CCNCC1`: the “hERG current change (%, negative = inhibition) at 10uM” value is on record as 12.3%. In the case of `COc1ccc(C(O)Cc2nccn2C)cc1` (stereo not shown), the “hERG current change (%, negative = inhibition) at 10uM” value is -1.22%. `CCc1nc(SCC(=O)NCCc2ccc(OC)c(OC)c2)c2c(=O)n(C)c(=O)n(C)c2n1`: the “hERG current change (%, negative = inhibition) at 10uM” value is -5.53%. Next, `CCOc1ccc(NC(=O)C2C3c4ccccc4C(c4ccccc43)C2C(=O)O)cc1` (stereo not shown): 33.2%; `Cc1cccc(-n2c(CN3C(=O)c4ccccc4C3=O)nc3ccccc3c2=O)n1`: 6.38%; `O=C(CC1CCCCC1)NCc1ccc(Cl)cc1`: 4.37%. Next, `Cc1ccccc1C(=O)Nc1nc(-c2cccnc2)cs1`: 34.9%; `CCCNC(=O)C(=O)Nc1cc2c3c(c1)CCC(=O)N3CCC2`: -15.4%; `Cc1ccc(NC(=O)CN(C)C(=O)/C=C/c2cccc(F)c2)cc1`: -8.26%. For the molecule `Cc1ccc(-c2csc(N(CCc3ccccc3)C(=O)COc3ccccc3)n2)cc1`, the “hERG current change (%, negative = inhibition) at 10uM” value came out at 15.1%. Next, `O=C(O)c1ccccc1N=N/C(=N/Nc1cc(S(=O)(=O)[O-])ccc1O)c1ccccc1.[Na+]`: 10.5%. The same measure for `CC[C@H](C)C(C(=O)N1CCN(C(=O)OC(C)(C)C)CC1)n1cc(C(CC(C)C)NC(=O)OC(C)(C)C)nn1` (stereo partly shown): -0.263%. The same measure for `Cc1ccc2c(c1)N(CCC(=O)NCCCOC(C)C)C(=O)C(C)O2` (stereo not shown): -0.496%; for `Cc1cc(C(=O)N2C(C)CCCC2C)no1` (stereo not shown): 6.13%; for `O=C(NCc1ccccn1)c1ccccc1-c1ccccc1`: 3.96%. Turning to `Cc1nn(C(C)c2n[nH]c(=S)n2-c2cccc(Cl)c2)c(C)c1[N+](=O)[O-]` (stereo not shown), the “hERG current change (%, negative = inhibition) at 10uM” value was found to be 13.4%. Next, `CCOc1c(Cl)cc(CNc2ccc(S(N)(=O)=O)cc2)cc1OC`: -3.11%; `Cc1sc2ncnc(N3CCC(C(=O)NNC(=O)c4ccc(F)cc4)CC3)c2c1C`: -21.9%; `O=C1NNC(c2ccccc2)=N/C1=C\c1ccccc1`: -6.08%. The same measure for `Cc1c[nH]c2cccc(OCC(O)CNC(C)(C)C)c12.Cl` (stereo not shown): -8.91%. Next, `O=C(Nc1ccncc1)c1ccc(F)cc1`: 0.865%. Consider `O=C(COc1ccc(Cl)cc1)Nc1ccc(CN2CCOCC2)cc1`, for which the “hERG current change (%, negative = inhibition) at 10uM” value is recorded as -39.6%. On to `CN(C)C=O.O=C(OCC(=O)N1CCCc2ccccc21)C1CCN(S(=O)(=O)c2cccs2)CC1`, for which the “hERG current change (%, negative = inhibition) at 10uM” value is -71.1%. Next, `NC(=NC(=O)c1ccccc1)N1CCOCC1`: -8.78%.

Consider `C/C(=N/NC(=O)c1cc2ccccc2cc1O)C1C(=O)c2ccccc2C1=O`, for which the “hERG current change (%, negative = inhibition) at 10uM” value is listed as 25.2%.

As to `O=C(NCc1cccnc1)c1cccc(S(=O)(=O)N2CCCC2)c1`, the “hERG current change (%, negative = inhibition) at 10uM” value is given as -6.24%. Next, `Cc1c(C#N)c(O)n(CCO)c(=O)c1N=Nc1ccccc1`: -1.05%; `CCc1nc2sc3ccccc3c(=O)c2c(=O)n1Cc1ccco1`: -8.27%; `Cc1ccc(CCNC(=O)C23CN(Cc4ccccc4)CC2C(c2ccc([N+](=O)[O-])cc2)=NO3)cc1` (stereo not shown): -24%.

As to `CCOC(=O)c1cn(CC(=O)Nc2cccc(F)c2)nn1`, the “hERG current change (%, negative = inhibition) at 10uM” value is given as -10.3%. With `COC(=O)Cc1ccc(NC(=S)NC2CC2)cc1`, the “hERG current change (%, negative = inhibition) at 10uM” value came to 6.3%. The same measure for `COc1cccc(NC(=O)Nc2ccc3c(c2)CCC3)c1`: 18.6%. Next, `Cc1ccc(S(=O)(=O)NCCC(=O)Nc2ccc(Cl)c(Cl)c2)cc1`: 15.9%; `O=C(O)[C@H]1CCCC[C@H]1C(=O)NCCc1ccccc1`: -6.25%; `CN(C)S(=O)(=O)c1ccc2oc(SCC(=O)NCC(F)(F)F)nc2c1`: -4.61%. Next, `O=C1CSC(c2ccccc2Cl)N1` (stereo not shown): 17%. `CCN(CC)C(=O)Cn1cnc2sc(C(=O)NCCCN3CCOCC3)c(C)c2c1=O`: the “hERG current change (%, negative = inhibition) at 10uM” value is 20.1%. The same measure for `COc1ccc(NC(=O)CN2C(=O)c3cccc4cccc2c34)c(OC)c1`: 3.07%. Next, `CCOC(CNC(=O)c1cccn2c(=O)c3cc(Cl)ccc3nc12)OCC`: -7.16%; `C=CCc1ccc(OCC(O)CN2CCCCC2C)c(OC)c1.Cl` (stereo not shown): -55.1%; `COCCNC(=O)c1csc2c1CCCC2`: -0.457%. The same measure for `CC(C)(C)c1ccc(C(=O)NCCCN2CCN(CCCNC(=O)c3ccc(C(C)(C)C)cc3)CC2)cc1`: -63.6%; for `COCCCn1cnnc1SCC(=O)Nc1ccc(S(=O)(=O)N2CCCC2)cc1`: 12.9%; for `O=C(NCCCN1CCOCC1)c1cc(C(=O)C2CC2)c[nH]1`: 21.5%. As to `O=C(NCc1ccccc1)C(c1cccnc1)N(Cc1ccco1)C(=O)c1ccccn1` (stereo not shown), the “hERG current change (%, negative = inhibition) at 10uM” value is -9.79%. Take `O=C(NCc1cccnc1)Nc1ccccc1`: the “hERG current change (%, negative = inhibition) at 10uM” value was found to be 5.04%. Next, `Cc1ccc(S(=O)(=O)Nc2ccc(Cl)cc2C(=O)c2ccc(F)cc2)cc1`: 1.36%. Next, `COc1ccc(CNS(=O)(=O)CCNC(=O)c2ccc(OC)cc2)cc1`: -29.3%; `O=C(NCCCCNC(=O)c1ccccn1)c1ccccn1`: 21.2%. The same measure for `CCC(C)Sc1cc(C(F)(F)F)c(C(=O)Nc2ccc(Cl)cc2)cn1` (stereo not shown): 8.43%; for `Cc1ccccc1CNC(=O)CCC(=O)N1CCOc2ccc(Cl)cc21`: -24.2%; for `CC(C)CNCC1OCc2ccccc2CO1.Cl`: 13.6%.

As to `CCCNC(=O)c1cnc(-c2ccccc2)nc1-c1ccccc1`, the “hERG current change (%, negative = inhibition) at 10uM” value turned out to be 15.2%. As to `N#Cc1c[nH]n2c(=O)c3c(nc12)CCC3`, the “hERG current change (%, negative = inhibition) at 10uM” value stood at 13.9%. The same measure for `COc1cccc(CNCCO)c1OCc1ccccc1.Cl`: -1.31%; for `O=C(COC(=O)CCc1nc2ccccc2s1)NCc1ccco1`: 2.82%.

Regarding `Cc1cccc(C)c1NC(=O)CNC(=O)C(NC(=O)c1ccc(C(C)(C)C)cc1)C(C)C` (stereo not shown), the “hERG current change (%, negative = inhibition) at 10uM” value worked out at 14.4%. The same measure for `CCOc1ccccc1NC(=O)CN1CCC(C(=O)c2ccc(F)cc2)CC1`: -20.9%; for `O=c1oc(-c2cccs2)nc2ccc(Cl)cc12`: 21.4%. Next, `S=c1[nH]nc(-c2ccccn2)n1/N=C/c1ccc(-c2ccccc2Cl)o1`: 20.5%; `CC(=O)c1cn(N2CCCCC2)c(=O)[nH]c1=O`: 19.6%.

With `COc1cccc(NC(=O)CCNS(=O)(=O)c2ccc3c(c2)CC(C)N3C(=O)C2CC2)c1` (stereo not shown), the “hERG current change (%, negative = inhibition) at 10uM” value is -5.18%. Next, `O=C(CCS(=O)(=O)Cc1ccccc1)NCC1CCCO1` (stereo not shown): 8.35%. Next, `COc1ccc(OCCN2C(=O)c3ccccc3C2=O)c([N+](=O)[O-])c1`: -25%; `COC(=O)NCN1C(=O)C2C3C=CC(C3)C2C1=O` (stereo not shown): 17.6%. The same measure for `CC(C)CCNC(=O)c1c(N)n(Cc2ccc3c(c2)OCO3)c2nc3ccccc3nc12`: 4.13%. Regarding `COc1cc(NC(=S)NC(C)(C)C)c(OC)cc1Cl`, the “hERG current change (%, negative = inhibition) at 10uM” value came to 1.18%. As for `CS(=O)(=O)c1ccc(C(=O)NC2CCCCC2)cc1`, the “hERG current change (%, negative = inhibition) at 10uM” value turned out to be 12.1%. Next, `CCCCn1c(N)c(N(CC(C)C)C(=O)c2cccc(S(=O)(=O)N(C)c3ccc(C)cc3)c2)c(=O)[nH]c1=O`: -1.62%; `Cc1nc2ncnn2c(C)c1CCC(=O)N1CCCCC1`: -2.79%; `S=C(NCc1ccccc1)N1CCN(C(=S)NCc2ccccc2)CC1`: 12.9%. On to `O=C(NCCCn1ccnc1)c1nn2c(C(F)(F)F)cc(-c3ccc(Br)cc3)nc2c1Cl`, for which the “hERG current change (%, negative = inhibition) at 10uM” value was -65.7%. Next, `COc1ccc(C(=O)NNC(=O)CSc2nnc(C)n2C)cc1`: 21.7%; `Nc1ccc(NC(=O)Nc2ccc(N)cc2)cc1`: 15.9%; `CN(CC(=O)Nc1ccccc1Cl)C(=O)COC(=O)CCN1C(=O)C2CC=CCC2C1=O` (stereo not shown): 13.3%.

`Cc1ccc(N2Cc3ccccc3C2=S)cc1`: the “hERG current change (%, negative = inhibition) at 10uM” value was -19.6%. Next, `O=C(CSc1nnc(-c2ccccn2)n1Cc1ccco1)c1ccc(Cl)cc1`: -43.1%; `CCCc1nc(N2CCOCC2)c(C#N)c2c1CCCC2`: 1.31%. Next, `COc1cccc(C(=O)NC2CCCc3ccccc32)c1OC` (stereo not shown): -1.84%.

As for `COc1cccc2cc(C(=O)OCC(=O)NCc3ccc4c(c3)OCO4)c(=O)oc12`, the “hERG current change (%, negative = inhibition) at 10uM” value is recorded as 2.02%.
